The other results are listed elsewhere or left out. Single values of this set are uncertain. Values with irradiation are relative to irradiated vehicle.
The compounds below were run on A549-Dual (assay: NF-kB reporter (SEAP) activity, viability-corrected, relative to vehicle (fold change vs vehicle); higher = more activation of STING-IRF / NF-kB immune response reporter). Settings: 10 µM; irradiation: none.
With Cc1cccc(C)c1NC(=O)c1cc(S(N)(=O)=O)c(Cl)cc1O [Xipamide] the NF-kB reporter was 0.846.
With COc1cc(/C=C/C(=O)OC2CCC34CC35CCC3(C)C(C(C)CCC=C(C)C)CCC3(C)C5CCC4C2(C)C)ccc1O (stereo not given) [Gamma-Oryzanol] the NF-kB reporter was 0.741.
CCCCN(CCCC)CC(O)c1cc(Cl)cc2c1-c1ccc(Cl)cc1/C2=C/c1ccc(Cl)cc1 (stereo not given) [Lumefantrine] showed an NF-kB reporter of 1.05.
Cc1nc2n(c(=O)c1CCN1CCC(c3noc4cc(F)ccc34)CC1)CCCC2 [Risperidone] was tested, and the NF-kB reporter was 1.24.
CCCCOc1cc(C(=O)OCCN(CC)CC)ccc1N.Cl [Oxybuprocaine HCl] was tested, and the NF-kB reporter was 1.37.
CC12CCC3c4ccc(O)cc4CCC3C1CCC2=O (stereo not given) [Estrone] showed an NF-kB reporter of 0.985.
With NCCC(O)C(=O)NC1CC(N)C(OC2OC(CN)C(O)C(O)C2O)C(O)C1OC1OC(CO)C(O)C(N)C1O.O=S(=O)(O)O.O=S(=O)(O)O (stereo not given) [Amikacin disulfate] the NF-kB reporter was 1.07.
O=C(NC(Cc1cc(=O)[nH]c2ccccc12)C(=O)O)c1ccc(Cl)cc1 (stereo not given) [Rebamipide] gave an NF-kB reporter of 0.99.
Compound CC(C)n1c(/C=C/C(O)CC(O)CC(=O)[O-])c(-c2ccc(F)cc2)c2ccccc21.[Na+] (stereo not given) [Fluvastatin Sodium] has an NF-kB reporter of 2.39.
For Cc1cc(C(C)(C)C)c(O)c(C(C)(C)C)c1 [Butylated hydroxytoluene], the NF-kB reporter was 0.896.
Work on O=c1[nH]cnc2nc[nH]c12 [Hypoxanthine] yielded an NF-kB reporter of 0.612.
Work on CC1CC(C(=O)O)C2CCC3(C)C(=CCC4C5(C)CCC(O)C(C)(C)C5CCC43C)C2C1C (stereo not given) [Ursolic Acid] yielded an NF-kB reporter of 1.04.
With CC(=O)c1ccccc1 [Acetophenone] the NF-kB reporter was 0.688.
CC#CC1(O)CCC2C3CCC4=CC(=O)CCC4=C3C(c3ccc(N(C)C)cc3)CC21C (stereo not given) [Mifepristone] was tested, and the NF-kB reporter was 1.09.
Compound CCc1nn(CCCN2CCN(c3cccc(Cl)c3)CC2)c(=O)n1CCOc1ccccc1.Cl [Nefazodone hydrochloride] has an NF-kB reporter of 0.535.
Compound COC1C(OC(C)=O)CC(=O)OC(C)C/C=C/C=C/C(OC2CCC(N(C)C)C(C)O2)C(C)CC(CC=O)C1OC1OC(C)C(OC2CC(C)(O)C(O)C(C)O2)C(N(C)C)C1O (stereo not given) [Acetylspiramycin (ASPM)] has an NF-kB reporter of 0.99.
Compound OCC1OC(O)CC(O)C1O [2-Deoxy-D-glucose] has an NF-kB reporter of 0.857.
In the case of CCCNS(=O)(=O)Nc1ncnc(OCCOc2ncc(Br)cn2)c1-c1ccc(Br)cc1 [Macitentan], the NF-kB reporter is reported as 0.964.
Compound C#CC1(O)CCC2C3CCc4cc(O)ccc4C3CCC21C (stereo not given) [Ethinyl Estradiol] has an NF-kB reporter of 1.27.
For COC(=O)NC(C(=O)N1C2CCC(C2)C1c1nc2ccc(-c3ccc4c(c3)C(F)(F)c3cc(-c5cnc(C6CCC7(CC7)N6C(=O)C(NC(=O)OC)C(C)C)[nH]5)ccc3-4)cc2[nH]1)C(C)C (stereo not given) [Ledipasvir (GS5885)], the NF-kB reporter was 0.9.
Compound CCOC(=O)C1=CC2(CC)CCCN3CCc4c(n1c1ccccc41)C32 (stereo not given) [Vinpocetine] has an NF-kB reporter of 0.589.
For CCCCC(CC)COC(=O)C(C#N)=C(c1ccccc1)c1ccccc1 (stereo not given) [Octocrylene], the NF-kB reporter was 0.496.
CC(C)NCC(O)COc1ccc(CCOCC2CC2)cc1.Cl (stereo not given) [Betaxolol HCl] gave an NF-kB reporter of 0.672.
Cc1cc2c(s1)Nc1ccccc1N=C2N1CCN(C)CC1 [Olanzapine] gave an NF-kB reporter of 0.853.
In the case of CS(=O)(=O)O.Cc1c(O)cccc1C(=O)NC(CSc1ccccc1)C(O)CN1CC2CCCCC2CC1C(=O)NC(C)(C)C (stereo not given) [Nelfinavir Mesylate], the NF-kB reporter is reported as 0.744.
CC1NCc2cc(-c3ccc4c(=O)c(C(=O)O)cn(C5CC5)c4c3OC(F)F)ccc21 (stereo not given) [Garenoxacin] gave an NF-kB reporter of 0.91.
For O=c1cc(CO)occ1O [Kojic acid], the NF-kB reporter was 1.08.
CO/N=C(\C(=O)NC1C(=O)N2C(C(=O)[O-])=C(CSc3nc(=O)c([O-])nn3C)CSC12)c1csc(N)n1.[Na+].[Na+] (stereo not given) [Ceftriaxone Sodium Trihydrate] gave an NF-kB reporter of 0.851.
CNC1CCCN(c2c(F)cc3c(=O)c(C(=O)O)cn(C4CC4)c3c2OC)C1.O.O (stereo not given) [Balofloxacin Dihydrate] was tested, and the NF-kB reporter was 0.967.
Work on CCCCCCCC/C=C\CCCCCCCC(=O)O [Oleic Acid] yielded an NF-kB reporter of 0.769.
Work on NS(=O)(=O)c1cc2c(cc1C(F)(F)F)NC(Cc1ccccc1)NS2(=O)=O (stereo not given) [Bendroflumethiazide] yielded an NF-kB reporter of 1.11.
With C=C(C)C1CCC2(CO)CCC3(C)C(CCC4C5(C)CCC(O)C(C)(C)C5CCC43C)C12 (stereo not given) [Betulin] the NF-kB reporter was 1.03.
C1CCN2CC3CC(CN4CCCCC34)C2C1 (stereo not given) [Sparteine] gave an NF-kB reporter of 1.04.
In the case of CC(=O)OCC(=O)C1CCC2C3CCC4=CC(=O)CCC4(C)C3CCC12C (stereo not given) [Deoxycorticosterone acetate], the NF-kB reporter is reported as 0.841.
For COc1ccc(/C=C/C(=O)Nc2ccccc2C(=O)O)cc1OC [Tranilast], the NF-kB reporter was 1.25.
CN(C)C(CCOc1cccc2ccccc12)c1ccccc1.Cl (stereo not given) [Dapoxetine HCl] gave an NF-kB reporter of 0.765.
O=c1cc(O)c(Cl)c[nH]1 [Gimeracil] was tested, and the NF-kB reporter was 0.854.
CC1=C(/C=C/C(C)=C/C=C/C(C)=C/CO)C(C)(C)CCC1 [Vitamin A] was tested, and the NF-kB reporter was 0.822.
Compound CC1=C(C(=O)O)N2C(=O)C(NC(=O)C(N)c3ccccc3)C2SC1 (stereo not given) [Cephalexin] has an NF-kB reporter of 0.942.
Work on CCOc1ccc2nc(S(N)(=O)=O)sc2c1 [Ethoxzolamide] yielded an NF-kB reporter of 0.823.
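Note: viability correction based on the alamar blue assay, with concentrations leaving 10% survival or less dropped.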
